Measured values as given in PubChem BioAssay AID588453 (National Center for Advancing Translational Sciences (NCATS), 2011).
Where “and” joins values, the source holds several entries; their conditions need not be identical. Equal entries are not always repeated. Out of some 390,000 compounds screened, about 4,000 (1%) were called active. Entries that show only a call come without a potency. This list was built around the results that the source calls inconclusive (neither active nor inactive); the mix of calls is not that of the screen. Calls follow the shape of the dose curve; as a rule, active = well fitted inhibition curve with a large enough effect; inconclusive = small, poorly fitted or top-dose-only effect; inactive = no such curve, though single readings can be large or run the other way. Where the call is inconclusive, the potency comes from a doubtful curve fit.

The compounds below were run against Thioredoxin reductase 1, cytoplasmic (Rattus norvegicus) (UniProt O89049) (assay: qHTS Assay for Inhibitors of Mammalian Selenoprotein Thioredoxin Reductase 1 (TrxR1): qHTS). Conditions: recombinant rTrxR1, NADPH fluorescence consumption, selenite substrate; series mostly up to 114 µM.
Chain of UniProt O89049 (O89049 whole entry, looked up): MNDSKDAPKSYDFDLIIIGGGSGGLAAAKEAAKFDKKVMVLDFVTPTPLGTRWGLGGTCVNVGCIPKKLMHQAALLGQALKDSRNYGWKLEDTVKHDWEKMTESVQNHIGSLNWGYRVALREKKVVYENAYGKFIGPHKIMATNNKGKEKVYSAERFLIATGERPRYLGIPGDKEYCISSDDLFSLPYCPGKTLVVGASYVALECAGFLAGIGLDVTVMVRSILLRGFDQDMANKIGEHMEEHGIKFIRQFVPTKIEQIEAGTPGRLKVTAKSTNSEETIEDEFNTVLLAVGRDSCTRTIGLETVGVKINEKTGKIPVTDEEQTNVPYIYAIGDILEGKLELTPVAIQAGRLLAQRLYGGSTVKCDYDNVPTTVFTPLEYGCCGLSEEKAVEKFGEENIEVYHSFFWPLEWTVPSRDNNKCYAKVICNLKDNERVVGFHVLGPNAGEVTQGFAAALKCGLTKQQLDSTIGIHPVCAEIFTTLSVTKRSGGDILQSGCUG
Summary of the method: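 Rat TrxR1 (90 nM in the dispensed reagent) was pre-reduced with 400 uM NADPH for 5 min at room temperature, then incubated with compound for 15 min. After 400 uM selenite was added, NADPH fluorescence (Ex 340/Em 450 nm) was followed for 8 min.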
Also: nearly all actives have a fitted effect of over 65% in size.
Potency is read from the fitted curve at half-maximal effect; tags tell the direction and shape of the fitted curve.

| SMILES | Potency |
| --- | --- |
| COc1ccc2c(c1)c1c(c(=O)n(-c3ccccc3C)c(=O)n1Cc1cccc(C(F)(F)F)c1)n2C | inactive |
| CS(=O)(=O)c1ccc(C(=O)NCCN2C(=O)S/C(=C\c3cccnc3)C2=O)cc1[N+](=O)[O-] | active: 17.8 µM |
| CC(C)(C)c1ccc(C(=O)N/C(=C\c2ccco2)C(=O)Nc2ccccc2C(=O)O)cc1 | inconclusive: 5.01 µM [inhibitor, full curve, poor fit] |
| Cc1ccc(S(=O)(=O)NCC2CCCO2)cc1 (stereo not given) | inactive |
| Cc1ccc(Nc2c(-c3c[nH]c4ccccc34)nc3ccccn23)cc1 | inactive |
| Cc1ccc(NC(=O)Cn2c(=O)n(Cc3ccccc3)c(=O)c3sc4ccccc4c32)cc1 | inactive |
| O=C(CC1C(=O)NCCN1Cc1ccccn1)NCCc1ccccc1F (stereo not given) | inconclusive: 79.4 µM [inhibitor, partial curve] |
| COc1ccc(C(=O)CSc2nnc(-c3cnccn3)n2Cc2ccco2)cc1 | inconclusive: 50.1 µM [inhibitor, partial curve] |
| CCCSc1nnc2c(n1)OC(c1sccc1C)Nc1ccccc1-2 (stereo not given) | inconclusive: 79.4 µM [inhibitor, single point] |
| CCc1ccc(Cn2c(CNS(=O)(=O)c3ccc(F)c(Cl)c3)nc3cccnc32)cc1 | inactive |
| CCOc1[nH]c(/N=C/c2ccco2)c(C#N)c1C#N | inconclusive: 31.6 µM [inhibitor, partial curve] and inconclusive: 56.2 µM [inhibitor, partial curve, poor fit] |
| CC(=O)Nc1ccc(/C=C2\C=Cc3ccccc32)cc1 | inconclusive: 50.1 µM [inhibitor, partial curve] |
| C=CC[n+]1c(-c2ccccc2)csc1NC(C)(C)C | inactive |
| O=C(OCCOc1cccc(Cl)c1)c1cc(S(=O)(=O)N2CCCCC2)ccc1N1CCOCC1 | inactive |
| COc1ccc(S(=O)(=O)N2CCOc3ccccc32)cc1 | inactive |
| CCCCOC(=O)c1ccc(NC(=O)Cn2nnc3sc4c(c3c2=O)CCCC4)cc1 | inactive |
| COC(=O)[C@@]1(Cc2ccc(F)cc2)[C@H]2c3cc(C(=O)N(C)C)n(Cc4ccccc4)c3C[C@H]2CN1C(=O)c1ccccc1 | inactive |
| O=C(CN1CCN(C(=O)c2ccco2)CC1)NCc1ccc(Cl)cc1 | active: 14.1 µM |
| COCc1cc(C)n(CC(=O)N/N=C/c2ccc(-c3ccc(Cl)c(C(=O)O)c3)o2)c(=O)c1C#N | inconclusive: 56.2 µM [inhibitor, partial curve] |
| Cc1oc(-c2ccccc2F)nc1CS(=O)CC(=O)NCc1ccccn1 (stereo not given) | inconclusive: 50.1 µM [inhibitor, partial curve] |
